# Assay results published in PubChem BioAssay AID485294 (National Center for Advancing Translational Sciences (NCATS), 2010).
# About 150 (0.041%) of roughly 370,000 compounds were called active. Inconclusive means that the source gave no clear call. Such entries were picked first, then a sample of the others. Calls follow the shape of the dose curve; as a rule, active = well fitted inhibition curve with a large enough effect; inconclusive = small, poorly fitted or top-dose-only effect; inactive = flat fitted curve, though single readings scatter. Potencies of inconclusive entries are left out as doubtful fits.
# Target: Beta-lactamase (Escherichia coli (strain K12)) (UniProt P00811)
# Test: qHTS Inhibitors of AmpC Beta-Lactamase (assay with detergent); also: nearly all actives have a fitted effect of over 25% in size
# Conditions: AmpC hydrolysis of nitrocefin, absorbance 480 nm, 0.01% Triton; series mostly up to 114 µM
# Method in brief: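 20 mM phosphate pH 7.0 + 0.01% (detergent screen) or 0.0001% Triton X-100; 5.3 nM AmpC reagent; cpd preinc 15 min RT; nitrocefin (800 uM stock) to start; A480 q20 s × 4 min; Activity was normalised to no-enzyme and no-compound control wells.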
# Potency is read from the fitted curve at half-maximal effect; tags tell the direction and shape of the fitted curve.
# Chain of UniProt P00811 (P00811 whole entry, looked up): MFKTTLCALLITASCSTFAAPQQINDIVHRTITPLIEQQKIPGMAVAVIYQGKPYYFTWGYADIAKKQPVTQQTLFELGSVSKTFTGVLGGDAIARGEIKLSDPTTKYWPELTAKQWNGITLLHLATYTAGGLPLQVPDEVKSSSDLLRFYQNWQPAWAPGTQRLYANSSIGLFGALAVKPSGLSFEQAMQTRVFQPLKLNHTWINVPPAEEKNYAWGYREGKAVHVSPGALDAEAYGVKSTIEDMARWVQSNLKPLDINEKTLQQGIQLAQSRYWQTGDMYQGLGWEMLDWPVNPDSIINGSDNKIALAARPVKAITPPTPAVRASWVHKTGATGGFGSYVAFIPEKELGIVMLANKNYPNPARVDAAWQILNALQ
row,Compound,Potency
1,CCCn1c2c(c(O)c(C(=O)Nc3ncccc3O)c1=O)CCCC2,inactive
2,CCN(CC)c1ccc(/C=N/NC(=O)C(O)(c2ccccc2)c2ccccc2)o1,inactive
3,O=C(CCc1nc2ccccc2c(=O)[nH]1)NNC(=O)c1ccccc1Cl,"inconclusive [inhibitor, full curve, poor fit]"
4,COc1ccc2cc(C(=O)Nc3ccc(F)cc3)sc(=O)c2c1OC,"inconclusive [inhibitor, full curve]"
5,Cc1sc2nc(SCC(=O)N(C)Cc3ccccc3)n(-c3ccccc3)c(=O)c2c1C,"inconclusive [inhibitor, partial curve, poor fit]"
6,O=C(Nc1ccccc1Cl)N(Cc1nc2ccccc2c(=O)[nH]1)Cc1cccs1,inactive
7,Cc1nn(Cc2ccccc2)c(C)c1NC(=O)CSc1nc(-c2ccccc2)nc2c1cnn2-c1ccccc1,"inconclusive [inhibitor, full curve]"
8,CCN1CCN(C(C)C(=O)Nc2c(C)n(C)n(-c3ccccc3)c2=O)CC1 (configuration not stated),"inconclusive [inhibitor, full curve]"
9,CCC(C)(C)n1nnnc1C(c1ccc(F)cc1)N1CCN(C(=O)c2ccco2)CC1 (configuration not stated),"inconclusive [inhibitor, full curve, poor fit]"
10,COc1cccc(-n2c(SCC#N)nnc2-c2cnccn2)c1,"inconclusive [inhibitor, full curve, poor fit]"
11,COc1ccc(C(=O)Nc2ccc(-c3ccc(C)o3)cc2)cc1S(=O)(=O)N1CCOCC1,inactive
12,COc1ccc(C2CC(=O)C3=C(C2)NC(C)=C(C#N)C3c2ccc(N(C)C)cc2)cc1 (configuration not stated),inactive
13,Cn1c(=O)n(C)c2cc(NS(=O)(=O)c3ccc(F)cc3)ccc21,"inconclusive [inhibitor, full curve, poor fit]"
14,Cc1ccc(S(=O)(=O)N2CCN(c3ncnc4sccc34)CC2)cc1C,"inconclusive [inhibitor, full curve, poor fit]"
15,CCO/C(C)=N/n1c2nc3ccccc3nc2c2c(=O)n(Cc3ccccc3Cl)c(C)nc21,"inconclusive [inhibitor, partial curve]"
16,CC(C(=O)N1CCN(C=O)CC1)N1C(=O)c2ccccc2C1=O (configuration not stated),"inconclusive [inhibitor, full curve]"
17,O=C(Cc1cccs1)NC1CC(=O)N(c2cccc(F)c2)C1 (configuration not stated),inactive
18,CCSc1nnc(N(CCC(=O)O)CCC(=O)O)s1,"inconclusive [inhibitor, single point]"
19,CN(CC(=O)Nc1nc2ccccc2s1)S(=O)(=O)c1ccccc1,"inconclusive [inhibitor, full curve]"
20,Cc1cccc(C(=O)NC(C(=O)Nc2cccc(S(=O)(=O)N3CCCC3)c2)C(C)C)c1 (configuration not stated),"inconclusive [inhibitor, partial curve, poor fit]"
21,COc1ccc(-c2csc3nc(-c4ccccc4C)oc(=O)c23)cc1OC,inactive

row,Compound,Potency
1,CC(C)OC(=O)CSc1nc(N)c(C#N)c(-c2cccs2)c1C#N,"inconclusive [inhibitor, partial curve, poor fit]"
2,O=C1OC(c2ccccc2)=C/C1=C/c1cccs1,"inconclusive [inhibitor, partial curve, poor fit]"
3,C/C(CC(=O)Nc1ccc(F)cc1)=N\NC(=O)COc1ccccc1,"inconclusive [inhibitor, partial curve]"
4,CN(C)c1ccc(C(=O)n2nnc3ccccc32)cc1,"inconclusive [inhibitor, full curve]"
5,Cc1[nH]c2ccccc2c1C(=O)CSC(=S)N(C)C1CCCCC1,"inconclusive [inhibitor, single point]"
6,Cc1cc(Cl)nc2c(C(C)C)cccc12,"inconclusive [inhibitor, partial curve, poor fit]"
7,CC(Sc1nnc2ccccn12)C(=O)Nc1ncc(Cl)cc1Cl (configuration not stated),"inconclusive [inhibitor, partial curve, poor fit]"
8,N#Cc1cccc(S(=O)(=O)NCC(=O)NCCCc2ccccc2)c1,"inconclusive [inhibitor, partial curve, poor fit]"
9,COc1ccc(-n2nc(C(=O)NCC(=O)N3CCN(c4ccccn4)CC3)c3ccccc3c2=O)cc1Cl,inactive
10,Cc1csc(NC(=O)CCCSc2nc3ccccc3s2)n1,inactive
11,O=C(NC(=S)NCCC1=CCCCC1)c1cccnc1,inactive
12,CCC(C)(C)C(=O)Nc1cc([N+](=O)[O-])ccc1Cl,"inconclusive [inhibitor, full curve, poor fit]"
13,Cc1cccc(CSCCNC(=O)CCSc2ccccc2)c1,"inconclusive [inhibitor, full curve]"
14,O=C(Nc1cccc(S(=O)(=O)C(F)F)c1)c1ccc(S(=O)(=O)N2CCCC2)cc1,"inconclusive [inhibitor, full curve, poor fit]"
15,C(=N\NC(=Nc1ccccc1)c1ccccn1)/c1ccccn1,"inconclusive [inhibitor, partial curve, poor fit]"
16,Cc1cc(C)cc(NC(=O)COC(=O)c2ccc(CN3CCCC3=O)cc2)c1,"inconclusive [inhibitor, partial curve]"
17,Fc1ccc(-n2cc(-c3ccccc3)c3c(NN4CCOCC4)ncnc32)cc1,"inconclusive [inhibitor, single point]"
18,CCCCC/C(=N\NC(=O)Nc1ccccc1)c1ccccc1,"inconclusive [inhibitor, single point]"
19,Cc1cc(Nc2nnnn2-c2ccccc2)n(-c2ccccc2)n1,"inconclusive [inhibitor, full curve]"
20,CC12CC(NC(=O)N1c1cccc(C(=O)NCc3ccc4c(c3)OCO4)c1)c1cc(Cl)ccc1O2 (configuration not stated),"inconclusive [inhibitor, full curve, poor fit]"
21,CCOC(=O)c1sc(NC(=O)c2cc(-c3ccccc3)nc3ccccc23)c(C#N)c1C,"inconclusive [inhibitor, partial curve, poor fit]"
